Measured values published in the supplement of paper PMC3334620.
The full ranking holds about 33,000 sequences; the median of “E-score (-0.5 to 0.5)” is about -0.041, and the highest 2% start at about 0.37. The list shows a part of the results.

What follows are sequences tested against T1, Ecm22 (UniProt Q05958) (assay: PBM E-score (8-mer binding enrichment) (E-score (-0.5 to 0.5)); higher = stronger / more preferred TF binding; most listed sequences are background and not binding sites). Settings: protein concentration: 200 nM; construct: GST-full length.
T1 sequence: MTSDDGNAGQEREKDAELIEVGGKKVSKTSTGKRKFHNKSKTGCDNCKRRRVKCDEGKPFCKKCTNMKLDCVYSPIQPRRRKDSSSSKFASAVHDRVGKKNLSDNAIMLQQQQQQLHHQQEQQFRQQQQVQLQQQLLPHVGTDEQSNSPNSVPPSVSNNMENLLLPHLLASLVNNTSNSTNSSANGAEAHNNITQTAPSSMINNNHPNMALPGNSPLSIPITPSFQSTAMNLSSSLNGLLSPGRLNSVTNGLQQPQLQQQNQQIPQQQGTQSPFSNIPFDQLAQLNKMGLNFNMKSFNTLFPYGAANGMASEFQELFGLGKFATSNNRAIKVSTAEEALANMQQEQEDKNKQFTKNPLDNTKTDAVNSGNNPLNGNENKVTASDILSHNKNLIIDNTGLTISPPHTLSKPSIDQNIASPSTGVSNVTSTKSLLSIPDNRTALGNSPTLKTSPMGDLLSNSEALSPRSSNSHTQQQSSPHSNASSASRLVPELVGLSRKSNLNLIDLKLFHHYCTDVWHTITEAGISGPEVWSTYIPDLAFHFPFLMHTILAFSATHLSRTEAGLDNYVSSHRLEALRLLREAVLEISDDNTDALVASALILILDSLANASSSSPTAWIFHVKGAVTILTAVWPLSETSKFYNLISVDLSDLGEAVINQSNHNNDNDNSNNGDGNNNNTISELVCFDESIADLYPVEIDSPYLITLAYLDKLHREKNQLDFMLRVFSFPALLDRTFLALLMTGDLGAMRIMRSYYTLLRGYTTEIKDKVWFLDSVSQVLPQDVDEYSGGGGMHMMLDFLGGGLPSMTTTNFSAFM
In short: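 Yeast transcription factors, full-length or as DNA-binding domains, were expressed with a GST tag using PURExpress in vitro transcription/translation. At about 100-200 nM they were applied to universal all-10-mer Agilent arrays, double-stranded by primer extension on fresh or once-stripped slides. Fluorescent anti-GST detected bound protein, and masliner normalised the scans. E-scores for ungapped eight-base words, pooled with reverse complements, came from the Universal PBM Analysis Suite.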

Sequence | PBM E-score
CCAAGAAA | -0.242
AATACTAA | 0.134
ATCTGATC | -0.0345
CCGTCGCC | -0.097
ACGGACTA | -0.0134
GGTGAATA | -0.266
AAACAGAC | -0.031
CGCTTAAG | 0.223
TAACCGAA | 0.285
AACATGCC | 0.0142
CCGCTACA | -0.0208
ATTACCAA | -0.211
GCAAGTCC | -0.212
CTCGGGCA | 0.0983
ATGACTCC | -0.268
CGAGCCGA | 0.218
AGACCATA | 0.101
CTTAGTGA | -0.137
AAGGGCCG | -0.056
GGTACCCA | -0.145
AGAAACCC | -0.238
AGCAGCCA | -0.187
TAATGTAA | -0.044
GACTTGAA | 0.0599
CCCTGAAG | -0.145

Sequence | PBM E-score
AAAGGGAT | -0.167
AGCCTCGA | 0.0784
GCTTACAA | -0.144
CTCTCCTC | -0.177
ACCCGCGG | 0.0174
CGTTCTAC | 0.303
AGAAAGCC | -0.0565
TACCCGCA | 0.0887
CAATGGAG | -0.277
CAAGAAAA | -0.106
AGTCACCG | -0.00376
CGGTGGAC | -0.158
GACATGGA | -0.0123
CCTGGAGA | -0.141
CCTCCTCC | -0.0777
GATGTGAC | 0.036
CACTCGAG | 0.137
GATCGATC | 0.171
CCCTGGGA | -0.307
CAACTACA | -0.064
GCCAGCCA | -0.151
ATGTACCA | 0.0738
CTTTTCAA | -0.1
CAAAGAGC | -0.0963
GGAGCCCC | -0.112

Sequence | PBM E-score
ATTCAGCA | -0.119
CGTAGACA | 0.118
TGCCCCAA | -0.138
GAGGTTAC | 0.0471
CCTTGTGC | -0.193
CGCCGAGC | 0.0279
GAAAATAC | 0.108
AAATCATG | -0.15
CCGTAAAG | 0.323
GGCGCCCA | -0.0786
CTGGTGGA | -0.206
GGGGGAAA | -0.188
CTAAATGC | -0.0645
AAAGGGAA | -0.0636
CAGTATAC | 0.204
AACGAATG | 0.429
CAAATACG | 0.277
CGGGGTTC | 0.00936
AGGTTGCA | -0.146
ATCCGAGG | 0.187
AAATCGAA | -0.0101
CAGACAAG | -0.0687
GATGGTTA | 0.131
CAGGCCAG | 0.0615
CCAGGAGG | -0.215

Sequence | PBM E-score
CAACAGAA | -0.195
ATTAGAAG | -0.0466
AATCGATG | 0.0335
AAAGGTAC | 0.0997
TCCCCCGA | -0.256
ATACTGAG | 0.115
CATGTCAC | -0.0003
ATGCGAAG | 0.307
CCAAAATA | 0.00964
AGGACAGC | -0.0286
GACACCCC | -0.147
CACTAACC | -0.0814
ACAAGTGA | -0.126
CGAAGTGA | 0.251
GCGTACTA | 0.152
AAGACGAT | 0.0227
ATGAGCAA | -0.115
AGCGCGCC | -0.11
AGGGACCA | -0.0619
GCTCCGCC | -0.119
AGTCTACC | -0.156
ACTGTTAG | -0.138
GCACGAGC | 0.0624
ACGTTCGG | 0.0801
AGAAACAT | 0.035

Sequence | PBM E-score
GCATAGAC | -0.0574
CTCAACTC | 0.0353
AGAAACTC | 0.0214
CCGGTCAC | -0.0785
CCAACGGA | -0.205
ACCATCGG | -0.111
AGCGCACT | -0.0861
GCTACTCA | -0.131
ATACAGGA | 0.0363
AACGATCT | 0.381
ACCGCGTA | 0.175
AAGACGGA | -0.00193
CTCGACCC | -0.0126
TATCTGAA | -0.149
AATTTCGA | -0.036
ATAGGAGC | -0.162
GAAGAGAA | -0.0459
GTAGATTA | 0.126
CTAGACAC | -0.163
ATAGGCTA | -0.333
CCTAATTC | -0.124
TGCAGGAA | -0.0414
AAAAACCG | -0.0814
GGACCCCA | -0.0375
ACCTCTAC | 0.123

Sequence | PBM E-score
CGGTGCAG | -0.126
CAACTTTC | 0.0654
GAGAGGTA | -0.0307
AACAGTTC | 0.0451
CTCTTTGC | -0.0305
GTTAACAA | 0.0939
GCGCCAAA | -0.0502
GTCGCACA | 0.321
GCCTCCGC | -0.0824
ACTCGACG | 0.0838
CCTCGGAC | 0.246
GCCGTCCC | -0.18
CCGATTAA | 0.0979
CGTAACCC | 0.257
AATACTTC | -0.137
ACATCGTC | 0.0184
CATTGTCC | -0.225
CAAATCAC | 0.0334
AGATGCCT | -0.0331
AGTAAACG | 0.427
CGATGAAA | 0.0778
CATATGGG | -0.0838
CCAGGATC | -0.0711
ATCACTCG | 0.236
AGCTGCAG | -0.101

Sequence | PBM E-score
CCTAAAGG | -0.221
GTTTTAGA | -0.149
AGACTGCA | -0.263
AGCAGGTC | -0.0791
AACAGGAA | -0.0582
CATCTGTC | -0.115
CCAGTCCA | -0.325
CCCAAATC | -0.14
GGAGCGCC | -0.173
CCTCCGAC | -0.156
CCACTACC | -0.219
CCCGAGCC | 0.157
CTAACACA | 0.0887
ATGTTAGA | -0.315
CTATTATA | -0.116
AAGCACTA | 0.071
CACTAGGA | -0.238
TATTGGCA | -0.176
GCTCCTTA | -0.122
TCGCCCCA | -0.231
AACTACGA | 0.262
AGCTCTAA | -0.194
